Measured values as given in the supplement of paper PMC8728848.
Some of the results follow.

Tests used:
Experiment in all cases: glycan array binding signal (z-score within array); higher = stronger binding
Settings in all cases: glycan notation: IUPAC condensed, linker removed
[1] = target: GlcNAc(b1-3)[GlcNAc(b1-6)]Gal(b1-4)GlcNAc
Summary of the method: (§1)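 From the Consortium for Functional Glycomics database, 3228 arrays were curated, keeping only those whose protein sequence was available. Binding is given as a within-array Z-score averaged across arrays sharing a protein sequence and across linkers. Negative Z-scores can be read as non-binding.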

[2] = target: GlcNAc(b1-3)[GlcNAc(b1-6)]GalNAc
Summary of the method: as §1

[3] = target: GlcNAc(b1-4)Gal(b1-4)GlcNAc
Summary of the method: as §1

GlcNAc(b1-4)GlcNAc = target: GlcNAc(b1-4)GlcNAc
Summary of the method: as §1

[4] = target: GlcNAc(b1-4)GlcNAc(b1-4)GlcNAc
Summary of the method: as §1

[5] = target: GlcNAc(b1-4)GlcNAc(b1-4)GlcNAc(b1-4)GlcNAc(b1-4)GlcNAc
Summary of the method: as §1

[6] = target: GlcNAc(b1-4)GlcNAc(b1-4)GlcNAc(b1-4)GlcNAc(b1-4)GlcNAc(b1-4)GlcNAc
Summary of the method: as §1

[7] = target: GlcNAc(b1-4)[GlcNAc(b1-6)]GalNAc
Summary of the method: as §1

[8] = target: GlcNAc(b1-6)Gal(b1-4)GlcNAc
Summary of the method: as §1

GlcNAc(b1-6)GalNAc = target: GlcNAc(b1-6)GalNAc
Summary of the method: as §1

GlcNAc3Prop(b1-4)GlcNAc = target: GlcNAc3Prop(b1-4)GlcNAc
Summary of the method: as §1

[9] = target: GlcNAc6S(b1-3)Gal(b1-4)GlcNAc
Summary of the method: as §1

Kdn(a2-3)Gal(b1-3)GalNAc = target: Kdn(a2-3)Gal(b1-3)GalNAc
Summary of the method: as §1

Kdn(a2-3)Gal(b1-3)GlcNAc = target: Kdn(a2-3)Gal(b1-3)GlcNAc
Summary of the method: as §1

Kdn(a2-3)Gal(b1-4)Glc = target: Kdn(a2-3)Gal(b1-4)Glc
Summary of the method: as §1

Kdn(a2-3)Gal(b1-4)GlcNAc = target: Kdn(a2-3)Gal(b1-4)GlcNAc
Summary of the method: as §1

[10] = target: Kdn(a2-3)Gal(b1-4)[Fuc(a1-3)]GlcNAc
Summary of the method: as §1

Kdn(a2-6)Gal(b1-4)GlcNAc = target: Kdn(a2-6)Gal(b1-4)GlcNAc
Summary of the method: as §1

[11] = target: Man(a1-2)Man(a1-2)Man(a1-3)Man
Summary of the method: as §1

[12] = target: Man(a1-2)Man(a1-2)Man(a1-6)[Man(a1-3)]Man
Summary of the method: as §1

Man(a1-2)Man(a1-3)Man = target: Man(a1-2)Man(a1-3)Man
Summary of the method: as §1

[13] = target: Man(a1-2)Man(a1-3)[Man(a1-2)Man(a1-6)]Man
Summary of the method: as §1

[14] = target: Man(a1-2)Man(a1-3)[Man(a1-2)Man(a1-6)]Man(a1-6)[Man(a1-2)Man(a1-2)Man(a1-3)]Man
Summary of the method: as §1

[15] = target: Man(a1-2)Man(a1-3)[Man(a1-2)Man(a1-6)]Man(a1-6)[Man(a1-2)Man(a1-2)Man(a1-3)]Man(b1-4)GlcNAc(b1-4)GlcNAc
Summary of the method: as §1

[16] = target: Man(a1-2)Man(a1-3)[Man(a1-6)]Man(a1-6)[Man(a1-2)Man(a1-3)]Man(b1-4)GlcNAc(b1-4)GlcNAc
Summary of the method: as §1

[17] = target: Man(a1-2)Man(a1-6)[Man(a1-3)]Man(a1-6)[Man(a1-2)Man(a1-2)Man(a1-3)]Man
Summary of the method: as §1

[18] = target: Man(a1-2)Man(a1-6)[Man(a1-3)]Man(a1-6)[Man(a1-2)Man(a1-2)Man(a1-3)]Man(b1-4)GlcNAc(b1-4)GlcNAc
Summary of the method: as §1

Man(a1-3)[Man(a1-6)]Man = target: Man(a1-3)[Man(a1-6)]Man
Summary of the method: as §1

[19] = target: Man(a1-3)[Man(a1-6)]Man(a1-6)[Man(a1-2)Man(a1-3)]Man(b1-4)GlcNAc(b1-4)GlcNAc
Summary of the method: as §1

[20] = target: Man(a1-3)[Man(a1-6)]Man(a1-6)[Man(a1-3)]Man
Summary of the method: as §1

[21] = target: Man(a1-3)[Man(a1-6)]Man(a1-6)[Man(a1-3)]Man(b1-4)GlcNAc(b1-4)GlcNAc
Summary of the method: as §1

[22] = target: Man(a1-3)[Man(a1-6)]Man(b1-4)GlcNAc(b1-4)GlcNAc
Summary of the method: as §1

[23] = target: Man(a1-3)[Man(a1-6)]Man(b1-4)GlcNAc(b1-4)[Fuc(a1-6)]GlcNAc
Summary of the method: as §1

Man(a1-6)Man = target: Man(a1-6)Man
Summary of the method: as §1

Man(b1-4)GlcNAc = target: Man(b1-4)GlcNAc
Summary of the method: as §1

MurNAc(b1-4)GlcNAc = target: MurNAc(b1-4)GlcNAc
Summary of the method: as §1

Neu5Ac(a2-3)Gal = target: Neu5Ac(a2-3)Gal
Summary of the method: as §1

[24] = target: Neu5Ac(a2-3)Gal(b1-3)GalNAc
Summary of the method: as §1

[25] = target: Neu5Ac(a2-3)Gal(b1-3)GalNAc(b1-3)Gal(a1-4)Gal(b1-4)Glc
Summary of the method: as §1

[26] = target: Neu5Ac(a2-3)Gal(b1-3)GalNAc(b1-3)Gal(b1-4)GlcNAc
Summary of the method: as §1

[27] = target: Neu5Ac(a2-3)Gal(b1-3)GalNAc(b1-4)[Neu5Ac(a2-3)]Gal(b1-4)Glc
Summary of the method: as §1

[28] = target: Neu5Ac(a2-3)Gal(b1-3)GalNAc(b1-4)[Neu5Ac(a2-8)Neu5Ac(a2-3)]Gal(b1-4)Glc
Summary of the method: as §1

[29] = target: Neu5Ac(a2-3)Gal(b1-3)GalNAc6S
Summary of the method: as §1

[30] = target: Neu5Ac(a2-3)Gal(b1-3)GlcNAc
Summary of the method: as §1

[31] = target: Neu5Ac(a2-3)Gal(b1-3)GlcNAc(b1-2)Man
Summary of the method: as §1

B1: LSECtin (Homo sapiens), Q6UXB4 (protein)
chain: MDTTRYSKWGGSSEEVPGGPWGRWVHWSRRPLFLALAVLVTTVLWAVILSILLSKASTERAALLDGHDLLRTNASKQTAALGALKEEVGDCHSCCSGTQAQLQTTRAELGEAQAKLMEQESALRELRERVTQGLAEAGRGREDVRTELFRALEAVRLQNNSCEPCPTSWLSFEGSCYFFSVPKTTWAAAQDHCADASAHLVIVGGLDEQGFLTRNTRGRGYWLGLRAVRHLGKVQGYQWVDGVSLSFSHWNQGEPNDAWGRENCVMMLHTGLWNDAPCDSEKDGWICEKRHNC
[1]
  glycan array binding signal (z-score): -0.184
[2]
  glycan array binding signal (z-score): -0.151
[3]
  glycan array binding signal (z-score): -0.18
GlcNAc(b1-4)GlcNAc
  glycan array binding signal (z-score): -0.132
[4]
  glycan array binding signal (z-score): -0.194
[5]
  glycan array binding signal (z-score): -0.251
[6]
  glycan array binding signal (z-score): -0.134
[7]
  glycan array binding signal (z-score): -0.195
[8]
  glycan array binding signal (z-score): -0.003
GlcNAc(b1-6)GalNAc
  glycan array binding signal (z-score): -0.146
GlcNAc3Prop(b1-4)GlcNAc
  glycan array binding signal (z-score): -0.15
[9]
  glycan array binding signal (z-score): -0.182
Kdn(a2-3)Gal(b1-3)GalNAc
  glycan array binding signal (z-score): -0.171
Kdn(a2-3)Gal(b1-3)GlcNAc
  glycan array binding signal (z-score): -0.203
Kdn(a2-3)Gal(b1-4)Glc
  glycan array binding signal (z-score): -0.182
Kdn(a2-3)Gal(b1-4)GlcNAc
  glycan array binding signal (z-score): -0.141
[10]
  glycan array binding signal (z-score): -0.169
Kdn(a2-6)Gal(b1-4)GlcNAc
  glycan array binding signal (z-score): -0.149
[11]
  glycan array binding signal (z-score): -0.151
[12]
  glycan array binding signal (z-score): -0.121
Man(a1-2)Man(a1-3)Man
  glycan array binding signal (z-score): -0.205
[13]
  glycan array binding signal (z-score): -0.133
[14]
  glycan array binding signal (z-score): -0.17
[15]
  glycan array binding signal (z-score): -0.214
[16]
  glycan array binding signal (z-score): -0.013
[17]
  glycan array binding signal (z-score): -0.144
[18]
  glycan array binding signal (z-score): -0.195
Man(a1-3)[Man(a1-6)]Man
  glycan array binding signal (z-score): -0.212
[19]
  glycan array binding signal (z-score): -0.21
[20]
  glycan array binding signal (z-score): -0.194
[21]
  glycan array binding signal (z-score): -0.225
[22]
  glycan array binding signal (z-score): -0.028
[23]
  glycan array binding signal (z-score): -0.138
Man(a1-6)Man
  glycan array binding signal (z-score): -0.171
Man(b1-4)GlcNAc
  glycan array binding signal (z-score): -0.195
MurNAc(b1-4)GlcNAc
  glycan array binding signal (z-score): -0.137
Neu5Ac(a2-3)Gal
  glycan array binding signal (z-score): -0.195
[24]
  glycan array binding signal (z-score): -0.163
[25]
  glycan array binding signal (z-score): -0.166
[26]
  glycan array binding signal (z-score): -0.355
[27]
  glycan array binding signal (z-score): -0.231
[28]
  glycan array binding signal (z-score): -0.128
[29]
  glycan array binding signal (z-score): 0.622
[30]
  glycan array binding signal (z-score): -0.034
[31]
  glycan array binding signal (z-score): -0.097
